The supplement of paper PMC10126150
Values marked as one replicate rest on one cluster of the flow cell; about a third of the high ones do not repeat.
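Further: ATP exposure 15 min at 22 °C before imaging.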

What follows are sequences tested on ATP (assay: switch fluorescence ratio, 500 uM ATP over buffer (Cy3 cluster intensity, sum of 5 cycles each) (fold (ratio)); higher = stronger signal-on switching upon ATP binding; sequences stand for … in TCGTCGGCAGCGTCAGATGTGTATAAGAGACAGTTTTTTTTTTTTTTTTTTTTTTTTT…TC). Details: aptamer strand: ATP DNA aptamer (quencher-CACCTGGGGGAGTATTGCGGAGGAAGG + anchor), 100 nM annealed; ATP concentration: 500 uM; one replicate.
Method in brief: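 Per cluster, summed Cy3 intensity from the target cycles was divided by that from the buffer cycles to give the fluorescence ratio, then averaged per switch-domain sequence. Clusters outside 100-1000 RFU were excluded. The Cy3-labelled switching-strand clusters, on a modified Illumina MiSeq flow-cell, were annealed to 100 nM quencher-labelled ATP aptamer and imaged in selection buffer, then after 15 min with 500 uM ATP at 22 °C, for five cycles with NaOH stripping and re-annealing between them.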
CCCTTTCAT was tested, and the switch fluorescence ratio was 1.08. With CCCTTTTACT the switch fluorescence ratio was 1.04. In the case of CCGAACGGCG, the switch fluorescence ratio was 1.26. In the case of CCGAAGGTGG, the switch fluorescence ratio was 0.999. CCGAAGGTTT was tested, and the switch fluorescence ratio was 1.04. In the case of CCGAAGTTGT, the switch fluorescence ratio was 2.32. In the case of CCGAATAAGT, the switch fluorescence ratio was 1.01. Sequence CCGAATGCCA has a switch fluorescence ratio of 1.64. Sequence CCGACGAGGG has a switch fluorescence ratio of 2.91. CCGAGAATGT gave a switch fluorescence ratio of 1.15. CCGAGAGACG gave a switch fluorescence ratio of 1.15. CCGAGATGT was tested, and the switch fluorescence ratio was 1.1. Work on CCGAGCGGGG yielded a switch fluorescence ratio of 1.5. CCGAGCTTCT gave a switch fluorescence ratio of 2.09. Work on CCGAGGAGTG yielded a switch fluorescence ratio of 1.06. Work on CCGAGTGAAT yielded a switch fluorescence ratio of 1.99. CCGAGTGCC was tested, and the switch fluorescence ratio was 1.48. In the case of CCGATAGGTT, the switch fluorescence ratio was 1.02. Work on CCGATAGTGA yielded a switch fluorescence ratio of 1.64. Work on CCGATCAGTT yielded a switch fluorescence ratio of 1.11. Work on CCGATCGGCT yielded a switch fluorescence ratio of 1.02. CCGATGTTAA gave a switch fluorescence ratio of 1.11. CCGATTAGCG gave a switch fluorescence ratio of 1.2. In the case of CCGATTGGAC, the switch fluorescence ratio was 1.51. CCGCACAAGT showed a switch fluorescence ratio of 3.48. CCGCACGGCA showed a switch fluorescence ratio of 1.84. CCGCATGAAG gave a switch fluorescence ratio of 2.33. In the case of CCGCCCCTTA, the switch fluorescence ratio was 1.42. For CCGCCTAGCC, the switch fluorescence ratio was 2.6. With CCGCGGAAAT the switch fluorescence ratio was 1.01. For CCGCGGGCG, the switch fluorescence ratio was 1.22. CCGCTACGGA was tested, and the switch fluorescence ratio was 1.56. Sequence CCGCTCAGTG has a switch fluorescence ratio of 1.73. For CCGCTGAATT, the switch fluorescence ratio was 1.03. CCGCTGGAGT showed a switch fluorescence ratio of 1.29. For CCGGAGAAGG, the switch fluorescence ratio was 2.13. With CCGGAGGGCA the switch fluorescence ratio was 1.22. In the case of CCGGCAAAGG, the switch fluorescence ratio was 1.33. Work on CCGGCATGGG yielded a switch fluorescence ratio of 1.12. Sequence CCGGCGCGAG has a switch fluorescence ratio of 4.66. In the case of CCGGCGCTGA, the switch fluorescence ratio was 1.29. Work on CCGGCTAAAA yielded a switch fluorescence ratio of 1.08. CCGGGGATGC gave a switch fluorescence ratio of 1.41. For CCGGGGCGTG, the switch fluorescence ratio was 0.976. CCGGGGGGCA was tested, and the switch fluorescence ratio was 1.05. In the case of CCGGGGTGAT, the switch fluorescence ratio was 1.26. CCGGGGTGTC gave a switch fluorescence ratio of 1.17. CCGGGTATCT gave a switch fluorescence ratio of 1.13. With CCGGGTCCGT the switch fluorescence ratio was 1.41. For CCGGGTGTAA, the switch fluorescence ratio was 1.15. In the case of CCGGTAGACC, the switch fluorescence ratio was 1.09. With CCGGTAGCCC the switch fluorescence ratio was 1.93. CCGGTAGCGG showed a switch fluorescence ratio of 1.16. For CCGGTATCGA, the switch fluorescence ratio was 1.06. CCGGTATGC showed a switch fluorescence ratio of 2.78. In the case of CCGGTCACGG, the switch fluorescence ratio was 0.988. For CCGGTCTTGT, the switch fluorescence ratio was 1.02. With CCGGTTGCCG the switch fluorescence ratio was 0.963. In the case of CCGGTTTACC, the switch fluorescence ratio was 1.04. Work on CCGTACTGCT yielded a switch fluorescence ratio of 1.03. CCGTAGCAGT was tested, and the switch fluorescence ratio was 2.39. Sequence CCGTAGGGC has a switch fluorescence ratio of 1.42. Work on CCGTAGTCAG yielded a switch fluorescence ratio of 2.98. Sequence CCGTATTTCG has a switch fluorescence ratio of 0.999. CCGTCCTGGT gave a switch fluorescence ratio of 0.995. In the case of CCGTGATTTT, the switch fluorescence ratio was 1.05. For CCGTGCAAAT, the switch fluorescence ratio was 5.22. In the case of CCGTGCGGGT, the switch fluorescence ratio was 1.04. For CCGTGGGGCT, the switch fluorescence ratio was 1.04. CCGTGGGTAG showed a switch fluorescence ratio of 0.996. With CCGTGTCACT the switch fluorescence ratio was 1.06. CCGTGTGGTA showed a switch fluorescence ratio of 1.03. For CCGTGTGTTA, the switch fluorescence ratio was 1.03. For CCGTGTTGGA, the switch fluorescence ratio was 1.04. CCGTTACAGT gave a switch fluorescence ratio of 1.11. In the case of CCGTTACATC, the switch fluorescence ratio was 1.52. CCGTTCGTTT was tested, and the switch fluorescence ratio was 1.09.
